Assay results from the supplement of paper PMC8728848.
This is one part of the list.

Key:
Assay in all cases: glycan array binding signal (z-score within array); higher = stronger binding
Conditions in all cases: glycan notation: IUPAC condensed, linker removed
GalNAc3S(b1-4)GlcNAc = target: GalNAc3S(b1-4)GlcNAc
Outline: (§1)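 The binding signal is a Z-score computed within each array and averaged over linkers. Arrays of the same protein sequence at different concentrations or buffers were also averaged together. Data originate from 3228 arrays in the Consortium for Functional Glycomics database, kept only where the protein sequence was available.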

GalNAc3S(b1-4)GlcNAc3S = target: GalNAc3S(b1-4)GlcNAc3S
Outline: as §1

GalNAc4S6S(b1-4)GlcNAc = target: GalNAc4S6S(b1-4)GlcNAc
Outline: as §1

GalNAc6S(b1-4)GlcNAc = target: GalNAc6S(b1-4)GlcNAc
Outline: as §1

Glc(a1-4)Glc = target: Glc(a1-4)Glc
Outline: as §1

[1] = target: Glc(a1-4)Glc(a1-4)Glc(a1-4)Glc
Outline: as §1

Glc(a1-6)Glc(a1-6)Glc = target: Glc(a1-6)Glc(a1-6)Glc
Outline: as §1

[2] = target: Glc(a1-6)Glc(a1-6)Glc(a1-6)Glc
Outline: as §1

Glc(b1-4)Glc = target: Glc(b1-4)Glc
Outline: as §1

Glc(b1-6)Glc = target: Glc(b1-6)Glc
Outline: as §1

GlcA(b1-3)Gal = target: GlcA(b1-3)Gal
Outline: as §1

GlcA(b1-3)GlcNAc = target: GlcA(b1-3)GlcNAc
Outline: as §1

GlcA(b1-6)Gal = target: GlcA(b1-6)Gal
Outline: as §1

[3] = target: GlcNAc(a1-3)Gal(b1-4)GlcNAc
Outline: as §1

[4] = target: GlcNAc(a1-4)Gal(b1-3)GlcNAc
Outline: as §1

[5] = target: GlcNAc(a1-4)Gal(b1-4)GalNAc
Outline: as §1

[6] = target: GlcNAc(a1-4)Gal(b1-4)GlcNAc
Outline: as §1

[7] = target: GlcNAc(a1-4)Gal(b1-4)GlcNAc(b1-3)Gal(b1-4)Glc
Outline: as §1

[8] = target: GlcNAc(a1-4)Gal(b1-4)GlcNAc(b1-3)Gal(b1-4)GlcNAc
Outline: as §1

[9] = target: GlcNAc(a1-4)Gal(b1-4)GlcNAc(b1-3)Gal(b1-4)GlcNAc(b1-3)Gal(b1-4)GlcNAc
Outline: as §1

[10] = target: GlcNAc(a1-4)Gal(b1-4)GlcNAc(b1-3)Gal(b1-4)[Fuc(a1-3)]GlcNAc(b1-3)Gal(b1-4)[Fuc(a1-3)]GlcNAc
Outline: as §1

[11] = target: GlcNAc(a1-6)Gal(b1-4)GlcNAc
Outline: as §1

[12] = target: GlcNAc(b1-2)Gal(b1-3)GalNAc
Outline: as §1

[13] = target: GlcNAc(b1-2)Man(a1-3)[GlcNAc(b1-2)Man(a1-6)]Man(b1-4)GlcNAc(b1-4)GlcNAc
Outline: as §1

[14] = target: GlcNAc(b1-2)Man(a1-3)[GlcNAc(b1-2)Man(a1-6)]Man(b1-4)GlcNAc(b1-4)[Fuc(a1-6)]GlcNAc
Outline: as §1

[15] = target: GlcNAc(b1-2)Man(a1-3)[GlcNAc(b1-4)][GlcNAc(b1-2)Man(a1-6)]Man(b1-4)GlcNAc(b1-4)GlcNAc
Outline: as §1

[16] = target: GlcNAc(b1-2)[GlcNAc(b1-4)]Man(a1-3)[GlcNAc(b1-2)Man(a1-6)]Man(b1-4)GlcNAc(b1-4)GlcNAc
Outline: as §1

[17] = target: GlcNAc(b1-2)[GlcNAc(b1-4)]Man(a1-3)[GlcNAc(b1-4)][GlcNAc(b1-2)Man(a1-6)]Man(b1-4)GlcNAc(b1-4)GlcNAc
Outline: as §1

[18] = target: GlcNAc(b1-2)[GlcNAc(b1-4)]Man(a1-3)[GlcNAc(b1-4)][GlcNAc(b1-2)[GlcNAc(b1-6)]Man(a1-6)]Man(b1-4)GlcNAc(b1-4)GlcNAc
Outline: as §1

[19] = target: GlcNAc(b1-2)[GlcNAc(b1-4)]Man(a1-3)[GlcNAc(b1-4)][GlcNAc(b1-2)[GlcNAc(b1-6)]Man(a1-6)]Man(b1-4)GlcNAc(b1-4)[Fuc(a1-6)]GlcNAc
Outline: as §1

[20] = target: GlcNAc(b1-2)[GlcNAc(b1-6)]Man(a1-6)[GlcNAc(b1-2)Man(a1-3)]Man(b1-4)GlcNAc(b1-4)GlcNAc
Outline: as §1

[21] = target: GlcNAc(b1-2)[GlcNAc(b1-6)]Man(a1-6)[GlcNAc(b1-2)Man(a1-3)]Man(b1-4)GlcNAc(b1-4)[Fuc(a1-6)]GlcNAc
Outline: as §1

[22] = target: GlcNAc(b1-2)[GlcNAc(b1-6)]Man(a1-6)[GlcNAc(b1-2)Man(a1-3)][GlcNAc(b1-4)]Man(b1-4)GlcNAc(b1-4)GlcNAc
Outline: as §1

GlcNAc(b1-3)Gal = target: GlcNAc(b1-3)Gal
Outline: as §1

[23] = target: GlcNAc(b1-3)Gal(b1-3)GalNAc
Outline: as §1

GlcNAc(b1-3)Gal(b1-4)Glc = target: GlcNAc(b1-3)Gal(b1-4)Glc
Outline: as §1

[24] = target: GlcNAc(b1-3)Gal(b1-4)GlcNAc
Outline: as §1

[25] = target: GlcNAc(b1-3)Gal(b1-4)GlcNAc(b1-3)Gal(b1-4)GlcNAc
Outline: as §1

GlcNAc(b1-3)GalNAc = target: GlcNAc(b1-3)GalNAc
Outline: as §1

GlcNAc(b1-3)Man = target: GlcNAc(b1-3)Man
Outline: as §1

[26] = target: GlcNAc(b1-3)[GlcNAc(b1-4)][GlcNAc(b1-6)]GlcNAc
Outline: as §1

[27] = target: GlcNAc(b1-3)[GlcNAc(b1-6)]Gal(b1-4)GlcNAc
Outline: as §1

[28] = target: GlcNAc(b1-3)[GlcNAc(b1-6)]GalNAc
Outline: as §1

[29] = target: GlcNAc(b1-3)[GlcNAc(b1-6)]GlcNAc(b1-4)GlcNAc
Outline: as §1

[30] = target: GlcNAc(b1-4)Gal(b1-4)GlcNAc
Outline: as §1

GlcNAc(b1-4)GlcNAc = target: GlcNAc(b1-4)GlcNAc
Outline: as §1

[31] = target: GlcNAc(b1-4)GlcNAc(b1-4)GlcNAc
Outline: as §1

[32] = target: GlcNAc(b1-4)GlcNAc(b1-4)GlcNAc(b1-4)GlcNAc(b1-4)GlcNAc
Outline: as §1

[33] = target: GlcNAc(b1-4)GlcNAc(b1-4)GlcNAc(b1-4)GlcNAc(b1-4)GlcNAc(b1-4)GlcNAc
Outline: as §1

[34] = target: GlcNAc(b1-4)[GlcNAc(b1-6)]GalNAc
Outline: as §1

[35] = target: GlcNAc(b1-6)Gal(b1-4)GlcNAc
Outline: as §1

GlcNAc(b1-6)GalNAc = target: GlcNAc(b1-6)GalNAc
Outline: as §1

GlcNAc3Prop(b1-4)GlcNAc = target: GlcNAc3Prop(b1-4)GlcNAc
Outline: as §1

[36] = target: GlcNAc6S(b1-3)Gal(b1-4)GlcNAc
Outline: as §1

Kdn(a2-3)Gal(b1-3)GalNAc = target: Kdn(a2-3)Gal(b1-3)GalNAc
Outline: as §1

Kdn(a2-3)Gal(b1-3)GlcNAc = target: Kdn(a2-3)Gal(b1-3)GlcNAc
Outline: as §1

Kdn(a2-3)Gal(b1-4)Glc = target: Kdn(a2-3)Gal(b1-4)Glc
Outline: as §1

Kdn(a2-3)Gal(b1-4)GlcNAc = target: Kdn(a2-3)Gal(b1-4)GlcNAc
Outline: as §1

[37] = target: Kdn(a2-3)Gal(b1-4)[Fuc(a1-3)]GlcNAc
Outline: as §1

Kdn(a2-6)Gal(b1-4)GlcNAc = target: Kdn(a2-6)Gal(b1-4)GlcNAc
Outline: as §1

B1: StcE (Escherichia coli), O82882.2 (protein)
chain: ADNNSAIYFNTSQPINDLQGSLAAEVKFAQSQILPAHPKEGDSQPHLTSLRKSLLLVRPVKADDKTPVQVEARDDNNKILGTLTLYPPSSLPDTIYHLDGVPEGGIDFTPHNGTKKIINTVAEVNKLSDASGSSIHSHLTNNALVEIHTANGRWVRDIYLPQGPDLEGKMVRFVSSAGYSSTVFYGDRKVTLSVGNTLLFKYVNGQWFRSGELENNRITYAQHIWSAELPAHWIVPGLNLVIKQGNLSGRLNDIKIGAPGELLLHTIDIGMLTTPRDRFDFAKDKEAHREYFQTIPVSRMIVNNYAPLHLKEVMLPTGELLTDMDPGNGGWHSGTMRQRIGKELVSHGIDNANYGLNSTAGLGENSHPYVVAQLAAHNSRGNYANGIQVHGGSGGGGIVTLDSTLGNEFSHEVGHNYGLGHYVDGFKGSVHRSAENNNSTWGWDGDKKRFIPNFYPSQTNEKSCLNNQCQEPFDGHKFGFDAMAGGSPFSAANRFTMYTPNSSAIIQRFFENKAVFDSRSSTGFSKWNADTQEMEPYEHTIDRAEQITASVNELSESKMAELMAEYAVVKVHMWNGNWTRNIYIPTASADNRGSILTINHEAGYNSYLFINGDEKVVSQGYKKSFVSDGQFWKERDVVDTREARKPEQFGVPVTTLVGYYDPEGTLSSYIYPAMYGAYGFTYSDDSQNLSDNDCQLQVDTKEGQLRFRLANHRANNTVMNKFHINVPTESQPTQATLVCNNKILDTKSLTPAPEGLTYTVNGQALPAKENEGCIVSVNSGKRYCLPVGQRSGYSLPDWIVGQEVYVDSGAKAKVLLSDWDNLSYNRIGEFVGNVNPADMKKVKAWNGQYLDFSKPRSMRVVYK
- glycan array binding signal (z-score) (GalNAc3S(b1-4)GlcNAc): -0.153
- glycan array binding signal (z-score) (GalNAc3S(b1-4)GlcNAc3S): -0.152
- glycan array binding signal (z-score) (GalNAc4S6S(b1-4)GlcNAc): -0.165
- glycan array binding signal (z-score) (GalNAc6S(b1-4)GlcNAc): -0.148
- glycan array binding signal (z-score) (Glc(a1-4)Glc): -0.3
- glycan array binding signal (z-score) [1]: -0.163
- glycan array binding signal (z-score) (Glc(a1-6)Glc(a1-6)Glc): -0.146
- glycan array binding signal (z-score) [2]: -0.148
- glycan array binding signal (z-score) (Glc(b1-4)Glc): -0.419
- glycan array binding signal (z-score) (Glc(b1-6)Glc): -0.234
- glycan array binding signal (z-score) (GlcA(b1-3)Gal): -0.134
- glycan array binding signal (z-score) (GlcA(b1-3)GlcNAc): -0.083
- glycan array binding signal (z-score) (GlcA(b1-6)Gal): -0.166
- glycan array binding signal (z-score) [3]: -0.161
- glycan array binding signal (z-score) [4]: -0.132
- glycan array binding signal (z-score) [5]: 0.257
- glycan array binding signal (z-score) [6]: 0.079
- glycan array binding signal (z-score) [7]: -0.11
- glycan array binding signal (z-score) [8]: -0.134
- glycan array binding signal (z-score) [9]: -0.17
- glycan array binding signal (z-score) [10]: 3.96
- glycan array binding signal (z-score) [11]: -0.157
- glycan array binding signal (z-score) [12]: 0.107
- glycan array binding signal (z-score) [13]: -0.128
- glycan array binding signal (z-score) [14]: -0.14
- glycan array binding signal (z-score) [15]: -0.167
- glycan array binding signal (z-score) [16]: -0.15
- glycan array binding signal (z-score) [17]: -0.154
- glycan array binding signal (z-score) [18]: -0.148
- glycan array binding signal (z-score) [19]: -0.164
- glycan array binding signal (z-score) [20]: -0.167
- glycan array binding signal (z-score) [21]: -0.114
- glycan array binding signal (z-score) [22]: -0.178
- glycan array binding signal (z-score) (GlcNAc(b1-3)Gal): 0.13
- glycan array binding signal (z-score) [23]: -0.285
- glycan array binding signal (z-score) (GlcNAc(b1-3)Gal(b1-4)Glc): -0.164
- glycan array binding signal (z-score) [24]: -0.354
- glycan array binding signal (z-score) [25]: -0.12
- glycan array binding signal (z-score) (GlcNAc(b1-3)GalNAc): -0.125
- glycan array binding signal (z-score) (GlcNAc(b1-3)Man): -0.175
- glycan array binding signal (z-score) [26]: -0.174
- glycan array binding signal (z-score) [27]: -0.151
- glycan array binding signal (z-score) [28]: -0.253
- glycan array binding signal (z-score) [29]: -0.323
- glycan array binding signal (z-score) [30]: -0.164
- glycan array binding signal (z-score) (GlcNAc(b1-4)GlcNAc): -0.149
- glycan array binding signal (z-score) [31]: -0.348
- glycan array binding signal (z-score) [32]: -0.15
- glycan array binding signal (z-score) [33]: -0.161
- glycan array binding signal (z-score) [34]: 0.189
- glycan array binding signal (z-score) [35]: -0.155
- glycan array binding signal (z-score) (GlcNAc(b1-6)GalNAc): -0.054
- glycan array binding signal (z-score) (GlcNAc3Prop(b1-4)GlcNAc): -0.117
- glycan array binding signal (z-score) [36]: -0.145
- glycan array binding signal (z-score) (Kdn(a2-3)Gal(b1-3)GalNAc): -0.154
- glycan array binding signal (z-score) (Kdn(a2-3)Gal(b1-3)GlcNAc): -0.092
- glycan array binding signal (z-score) (Kdn(a2-3)Gal(b1-4)Glc): -0.177
- glycan array binding signal (z-score) (Kdn(a2-3)Gal(b1-4)GlcNAc): 0.177
- glycan array binding signal (z-score) [37]: -0.152
- glycan array binding signal (z-score) (Kdn(a2-6)Gal(b1-4)GlcNAc): -0.17
